Results reported in the supplement of paper PMC8728848.
The other results are listed elsewhere or left out.

Key:
Assay in all cases: glycan array binding signal (z-score within array); higher = stronger binding
Conditions in all cases: glycan notation: IUPAC condensed, linker removed
Neu5Ac(a2-3)GalNAc = target: Neu5Ac(a2-3)GalNAc
Summary of the method: (§1)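 Glycan array data came from 3228 arrays in the Consortium for Functional Glycomics database, and only arrays with an available protein sequence were kept. Glycan names were put into IUPAC-condensed notation, and columns mapping to the same glycan were averaged. The binding signal is a within-array Z-score, averaged across arrays of one protein sequence run at different concentrations or buffers and across linkers. A negative Z-score can be read as non-binding.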

[1] = target: Neu5Ac(a2-3)GalNAc(b1-4)GlcNAc
Summary of the method: as §1

[2] = target: Neu5Ac(a2-3)[GalNAc(b1-4)]Gal(b1-4)Glc
Summary of the method: as §1

[3] = target: Neu5Ac(a2-3)[GalNAc(b1-4)]Gal(b1-4)GlcNAc
Summary of the method: as §1

[4] = target: Neu5Ac(a2-3)[GalNAc(b1-4)]Gal(b1-4)GlcNAc(b1-3)GalNAc
Summary of the method: as §1

[5] = target: Neu5Ac(a2-3)[Neu5Ac(a2-6)]GalNAc
Summary of the method: as §1

Neu5Ac(a2-6)Gal = target: Neu5Ac(a2-6)Gal
Summary of the method: as §1

[6] = target: Neu5Ac(a2-6)Gal(b1-3)GlcNAc(b1-3)[Gal(b1-4)GlcNAc(b1-6)]Gal(b1-4)Glc
Summary of the method: as §1

Neu5Ac(a2-6)Gal(b1-4)Glc = target: Neu5Ac(a2-6)Gal(b1-4)Glc
Summary of the method: as §1

[7] = target: Neu5Ac(a2-6)Gal(b1-4)GlcNAc
Summary of the method: as §1

[8] = target: Neu5Ac(a2-6)Gal(b1-4)GlcNAc(b1-2)Man
Summary of the method: as §1

[9] = target: Neu5Ac(a2-6)Gal(b1-4)GlcNAc(b1-2)Man(a1-3)Man(b1-4)GlcNAc(b1-4)GlcNAc
Summary of the method: as §1

[10] = target: Neu5Ac(a2-6)Gal(b1-4)GlcNAc(b1-2)Man(a1-3)[Gal(b1-4)GlcNAc(b1-2)Man(a1-6)]Man(b1-4)GlcNAc(b1-4)GlcNAc
Summary of the method: as §1

[11] = target: Neu5Ac(a2-6)Gal(b1-4)GlcNAc(b1-2)Man(a1-3)[GlcNAc(b1-2)Man(a1-6)]Man(b1-4)GlcNAc(b1-4)GlcNAc
Summary of the method: as §1

[12] = target: Neu5Ac(a2-6)Gal(b1-4)GlcNAc(b1-2)Man(a1-3)[GlcNAc(b1-4)][Neu5Ac(a2-6)Gal(b1-4)GlcNAc(b1-2)Man(a1-6)]Man(b1-4)GlcNAc(b1-4)GlcNAc
Summary of the method: as §1

[13] = target: Neu5Ac(a2-6)Gal(b1-4)GlcNAc(b1-2)Man(a1-3)[Man(a1-6)]Man(b1-4)GlcNAc(b1-4)GlcNAc
Summary of the method: as §1

[14] = target: Neu5Ac(a2-6)Gal(b1-4)GlcNAc(b1-2)Man(a1-3)[Neu5Ac(a2-3)Gal(b1-4)GlcNAc(b1-2)Man(a1-6)]Man(b1-4)GlcNAc(b1-4)GlcNAc
Summary of the method: as §1

[15] = target: Neu5Ac(a2-6)Gal(b1-4)GlcNAc(b1-2)Man(a1-3)[Neu5Ac(a2-6)Gal(b1-4)GlcNAc(b1-2)Man(a1-6)]Man(b1-4)GlcNAc(b1-4)GlcNAc
Summary of the method: as §1

[16] = target: Neu5Ac(a2-6)Gal(b1-4)GlcNAc(b1-2)Man(a1-3)[Neu5Ac(a2-6)Gal(b1-4)GlcNAc(b1-2)Man(a1-6)]Man(b1-4)GlcNAc(b1-4)[Fuc(a1-6)]GlcNAc
Summary of the method: as §1

[17] = target: Neu5Ac(a2-6)Gal(b1-4)GlcNAc(b1-2)Man(a1-6)Man(b1-4)GlcNAc(b1-4)GlcNAc
Summary of the method: as §1

[18] = target: Neu5Ac(a2-6)Gal(b1-4)GlcNAc(b1-2)Man(a1-6)[Gal(b1-4)GlcNAc(b1-2)Man(a1-3)]Man(b1-4)GlcNAc(b1-4)GlcNAc
Summary of the method: as §1

[19] = target: Neu5Ac(a2-6)Gal(b1-4)GlcNAc(b1-2)Man(a1-6)[GlcNAc(b1-2)Man(a1-3)]Man(b1-4)GlcNAc(b1-4)GlcNAc
Summary of the method: as §1

[20] = target: Neu5Ac(a2-6)Gal(b1-4)GlcNAc(b1-2)Man(a1-6)[Man(a1-3)]Man(b1-4)GlcNAc(b1-4)GlcNAc
Summary of the method: as §1

[21] = target: Neu5Ac(a2-6)Gal(b1-4)GlcNAc(b1-2)[Neu5Ac(a2-6)Gal(b1-4)GlcNAc(b1-4)]Man(a1-3)[GlcNAc(b1-4)][Neu5Ac(a2-6)Gal(b1-4)GlcNAc(b1-2)[Neu5Ac(a2-6)Gal(b1-4)GlcNAc(b1-6)]Man(a1-6)]Man(b1-4)GlcNAc(b1-4)GlcNAc
Summary of the method: as §1

[22] = target: Neu5Ac(a2-6)Gal(b1-4)GlcNAc(b1-2)[Neu5Ac(a2-6)Gal(b1-4)GlcNAc(b1-4)]Man(a1-3)[GlcNAc(b1-4)][Neu5Ac(a2-6)Gal(b1-4)GlcNAc(b1-4)Man(a1-6)]Man(b1-4)GlcNAc(b1-4)GlcNAc
Summary of the method: as §1

[23] = target: Neu5Ac(a2-6)Gal(b1-4)GlcNAc(b1-2)[Neu5Ac(a2-6)Gal(b1-4)GlcNAc(b1-6)]Man(a1-6)[Neu5Ac(a2-6)Gal(b1-4)GlcNAc(b1-2)Man(a1-3)][GlcNAc(b1-4)]Man(b1-4)GlcNAc(b1-4)GlcNAc
Summary of the method: as §1

[24] = target: Neu5Ac(a2-6)Gal(b1-4)GlcNAc(b1-3)Gal(b1-3)GlcNAc
Summary of the method: as §1

[25] = target: Neu5Ac(a2-6)Gal(b1-4)GlcNAc(b1-3)Gal(b1-4)GlcNAc
Summary of the method: as §1

[26] = target: Neu5Ac(a2-6)Gal(b1-4)GlcNAc(b1-3)Gal(b1-4)GlcNAc(b1-2)Man(a1-3)[Neu5Ac(a2-6)Gal(b1-4)GlcNAc(b1-3)Gal(b1-4)GlcNAc(b1-2)Man(a1-6)]GalNAc
Summary of the method: as §1

[27] = target: Neu5Ac(a2-6)Gal(b1-4)GlcNAc(b1-3)Gal(b1-4)GlcNAc(b1-3)Gal(b1-4)GlcNAc
Summary of the method: as §1

[28] = target: Neu5Ac(a2-6)Gal(b1-4)GlcNAc(b1-3)Gal(b1-4)GlcNAc(b1-3)Gal(b1-4)GlcNAc(b1-2)Man(a1-3)[Neu5Ac(a2-6)Gal(b1-4)GlcNAc(b1-3)Gal(b1-4)GlcNAc(b1-3)Gal(b1-4)GlcNAc(b1-2)Man(a1-6)]GalNAc
Summary of the method: as §1

[29] = target: Neu5Ac(a2-6)Gal(b1-4)GlcNAc(b1-3)Gal(b1-4)GlcNAc(b1-3)GalNAc
Summary of the method: as §1

[30] = target: Neu5Ac(a2-6)Gal(b1-4)GlcNAc(b1-3)Gal(b1-4)GlcNAc(b1-3)[Neu5Ac(a2-6)Gal(b1-4)GlcNAc(b1-3)Gal(b1-4)GlcNAc(b1-6)]GalNAc
Summary of the method: as §1

[31] = target: Neu5Ac(a2-6)Gal(b1-4)GlcNAc(b1-3)Gal(b1-4)GlcNAc(b1-6)[Gal(b1-3)]GalNAc
Summary of the method: as §1

[32] = target: Neu5Ac(a2-6)Gal(b1-4)GlcNAc(b1-3)Gal(b1-4)[Fuc(a1-3)]GlcNAc(b1-3)Gal(b1-4)[Fuc(a1-3)]GlcNAc
Summary of the method: as §1

[33] = target: Neu5Ac(a2-6)Gal(b1-4)GlcNAc(b1-3)GalNAc
Summary of the method: as §1

[34] = target: Neu5Ac(a2-6)Gal(b1-4)GlcNAc(b1-3)[Neu5Ac(a2-6)Gal(b1-4)GlcNAc(b1-6)]GalNAc
Summary of the method: as §1

B1: Cohesin-hDCIR (Homo sapiens) (protein)
chain: LDDLDAVRIKVDTVNAKPGDTVRIPVRFSGIPSKGIANCDFVYSYDPNVLEIIEIEPGDIIVDPNPDKSFDTAVYPDRKIIVFLFAEDSGTGAYAITKDGVFATIVAKVKEGAPNGLSVIKFVEVGGFANNDLVEQKTQFFDGGANVGDTTEPATPTTPVTTPTTTDDLDAASQKYSQLLEKKTTKELVHTTLECVKKNMPVEETAWSCCPKNWKSFSSNCYFISTESASWQDSEKDCARMEAHLLVINTQEEQDFIFQNLQEESAYFVGLSDPEGQRHWQWVDQTPYNESSTFWHPREPSDPNERCVVLNFRKSPKRWGWNDVNCLGPQRSVCEMMKIHLHHHHHH
Question: What does the source list for B1?
Answer: glycan array binding signal (z-score) (Neu5Ac(a2-3)GalNAc): -0.456; glycan array binding signal (z-score) [1]: -0.431; glycan array binding signal (z-score) [2]: -0.157; glycan array binding signal (z-score) [3]: -0.4; glycan array binding signal (z-score) [4]: -0.336; glycan array binding signal (z-score) [5]: 0.082; glycan array binding signal (z-score) (Neu5Ac(a2-6)Gal): -0.59; glycan array binding signal (z-score) [6]: -0.512; glycan array binding signal (z-score) (Neu5Ac(a2-6)Gal(b1-4)Glc): -0.39; glycan array binding signal (z-score) [7]: -0.356; glycan array binding signal (z-score) [8]: -0.38; glycan array binding signal (z-score) [9]: -0.482; glycan array binding signal (z-score) [10]: -0.564; glycan array binding signal (z-score) [11]: -0.636; glycan array binding signal (z-score) [12]: -0.661; glycan array binding signal (z-score) [13]: -0.595; glycan array binding signal (z-score) [14]: -0.352; glycan array binding signal (z-score) [15]: -0.136; glycan array binding signal (z-score) [16]: 1.95; glycan array binding signal (z-score) [17]: -0.613; glycan array binding signal (z-score) [18]: -0.261; glycan array binding signal (z-score) [19]: 0.473; glycan array binding signal (z-score) [20]: -0.7; glycan array binding signal (z-score) [21]: -0.567; glycan array binding signal (z-score) [22]: -0.51; glycan array binding signal (z-score) [23]: -0.637; glycan array binding signal (z-score) [24]: -0.194; glycan array binding signal (z-score) [25]: -0.112; glycan array binding signal (z-score) [26]: 1.27; glycan array binding signal (z-score) [27]: -0.542; glycan array binding signal (z-score) [28]: 0.292; glycan array binding signal (z-score) [29]: 0.179; glycan array binding signal (z-score) [30]: 0.096; glycan array binding signal (z-score) [31]: -0.633; glycan array binding signal (z-score) [32]: -0.654; glycan array binding signal (z-score) [33]: 0.44; glycan array binding signal (z-score) [34]: -0.591
